In all, about 310,000 compounds went through this assay and about 2,200 (0.71%) showed an effect of 50% or more. Effects have a minus sign here. This is one part of the list.
Molecular target: human ether-à-go-go-related gene (hERG) potassium channel (human, UniProt Q12809)
Assay: primary screen, population patch clamp on CHO cells stably expressing hERG

human ether-à-go-go-related gene (hERG) potassium channel, sequence (Q12809 whole entry, looked up): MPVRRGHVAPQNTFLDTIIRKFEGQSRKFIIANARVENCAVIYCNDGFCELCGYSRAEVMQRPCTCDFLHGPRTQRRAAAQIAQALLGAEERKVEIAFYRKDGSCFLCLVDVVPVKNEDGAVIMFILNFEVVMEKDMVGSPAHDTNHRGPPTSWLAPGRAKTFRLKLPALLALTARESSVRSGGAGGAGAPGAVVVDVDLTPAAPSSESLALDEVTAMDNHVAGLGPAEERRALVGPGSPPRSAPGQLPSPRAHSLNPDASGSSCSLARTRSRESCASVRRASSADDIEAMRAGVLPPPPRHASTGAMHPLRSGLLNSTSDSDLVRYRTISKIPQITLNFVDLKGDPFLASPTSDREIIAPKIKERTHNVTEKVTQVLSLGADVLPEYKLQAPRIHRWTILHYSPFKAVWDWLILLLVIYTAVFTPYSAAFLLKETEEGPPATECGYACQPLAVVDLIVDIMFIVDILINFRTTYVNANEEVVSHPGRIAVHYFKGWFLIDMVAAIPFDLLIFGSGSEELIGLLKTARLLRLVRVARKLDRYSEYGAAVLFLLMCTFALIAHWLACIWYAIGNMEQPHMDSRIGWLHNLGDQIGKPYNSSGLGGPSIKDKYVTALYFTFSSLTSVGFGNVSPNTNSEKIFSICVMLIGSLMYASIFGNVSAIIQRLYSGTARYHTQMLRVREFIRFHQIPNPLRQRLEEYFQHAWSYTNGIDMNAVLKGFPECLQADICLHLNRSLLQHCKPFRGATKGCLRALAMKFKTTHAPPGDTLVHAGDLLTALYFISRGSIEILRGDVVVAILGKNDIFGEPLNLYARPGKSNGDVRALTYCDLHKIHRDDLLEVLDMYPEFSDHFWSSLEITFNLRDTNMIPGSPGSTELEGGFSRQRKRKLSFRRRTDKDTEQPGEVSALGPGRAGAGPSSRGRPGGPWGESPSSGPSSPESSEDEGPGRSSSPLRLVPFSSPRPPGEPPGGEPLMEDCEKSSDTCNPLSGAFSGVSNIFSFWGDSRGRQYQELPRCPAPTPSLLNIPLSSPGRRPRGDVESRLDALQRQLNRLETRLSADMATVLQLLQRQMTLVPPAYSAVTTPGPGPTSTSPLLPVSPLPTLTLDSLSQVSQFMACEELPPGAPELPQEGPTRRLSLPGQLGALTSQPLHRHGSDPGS

SMILES	hERG current change (%, negative = inhibition) at 1uM [%]
O=[N+]([O-])c1ccc(S(=O)(=O)N2CCC3(CC2)OCCN3S(=O)(=O)c2cccs2)cc1	-23
COc1ccc(CCNC(=O)CSc2nnc(CNC(=O)c3ccco3)o2)cc1OC	0.602
COc1ccc(C(=O)N(Cc2ccc(N(C)C)cc2)C2CCS(=O)(=O)C2)cc1 (stereo not drawn)	11.5
O=C(O)C12CC3CC(C1)CC(n1ncc(N4CCN(c5ccccc5)CC4)c(Cl)c1=O)(C3)C2	6.71
CCCOc1ccc2c3c(c(=O)oc2c1OCCC)CCC3	13.2
Cc1ncc([N+](=O)[O-])n1CC(=O)Nc1ccc(F)cc1	7.42
NC(=O)c1ccccc1N(Cc1ccccc1)S(=O)(=O)c1ccccc1	13.6
COc1ccc(CN2C(=O)C(Cc3ccccc3)Nc3ncnc(N4CCOCC4)c32)cc1.O=C(O)C(F)(F)F (stereo not drawn)	7.13
Cc1cccc(NC(=O)CN(C)S(=O)(=O)c2ccccc2)n1	2.63
CCN1CCN(C(=O)c2cc(COc3ccc4ncccc4c3)on2)CC1	4.87
CCOC(=O)CN1C(=O)C(CC)Oc2ccc(Cl)cc21 (stereo not drawn)	-1.65
Cc1ccc(N=Nc2ccc(O)c(P(=O)(c3ccccc3)c3ccccc3)c2)cc1	-13.8
CCOC(=O)C1CCN(C(=O)c2ccc3snnc3c2)CC1	7.83
O=C(O)c1cc(Br)ccn1	7.31
Cc1ccc(NC(=O)CCC(=O)NNC(=O)c2cccs2)c(C)c1	-1.52
Cc1cc(=O)n2[nH]cc(C(=O)O)c2n1	-1.64
O=C(Nc1ccc(S(=O)(=O)N2C[C@@H]3C[C@@H](C2)c2cccc(=O)n2C3)cc1)c1ccc(F)cc1	4.78
Cc1onc(-c2ccccc2)c1C(=O)N1CCN(CCc2ccccc2)CC1	3.48
CS(=O)(=O)N(CCC#N)Cc1ccc(/C=C2\C(=O)Nc3ccccc32)o1	5.72
Cc1ccc(N=CC2=C(O)CC(c3ccccc3Cl)CC2=O)cc1 (stereo not drawn)	-4.29
CCOC(=O)c1sc2nc(C)nc(NCCc3ccccn3)c2c1C	18.3
Cc1[nH]c2ccccc2c1C(=O)C(=O)Nc1ccc2c(c1)OCCO2	8
COc1cc(/C=N/n2nnnc2N)ccc1OCC(N)=O	15.2
Nc1ncc2c(n1)CC(c1ccco1)CC2=O (stereo not drawn)	12.2

Reference: publication PMC4336329 (PLoS ONE, 2015)
